# Variants at the background level are over-represented here.
# B1: TPR 5TU (parent)
# chain: GGAUCUUCUCGAUCUAACAAAAAAGACAAAUCUGCCACAAAGCUUGAGAGCAUCUUCGGAUGCAGAGGCGGCAGCCUUCGGUGGCGCGAUAGCGCCAACGUUCUCAACUAUGACACGCAAAACGCGUGCUCCGUUGAAUGGAGUUUAUCAUG
# Variants of: B1
# Experiment: polymerase ribozyme fitness, log enrichment relative to wild type (log ratio); higher = more active; in vitro selection for triplet polymerase activity
# How it was run: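 Libraries of mutants in each subunit of a heterodimeric triplet polymerase ribozyme were generated by PCR and transcribed. In triplicate, each went through one in vitro selection round: annealing with biotinylated primer, partner subunit and triplets; frozen incubation at −7 °C; gel excision of extended constructs; streptavidin-bead capture; RT-PCR. Fitness, taken from Illumina sequencing of input and output libraries, is the logarithm of a genotype's enrichment over wild-type enrichment, averaged across replicates with inverse-variance weights. The logarithm is base 2, and genotypes needed ≥10 input reads and ≥1 read per output to be kept.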
row,Variant,polymerase ribozyme fitness (log ratio)
1,GGAUCUUCUCGAGCUAACAAAAAAGACAAAUCUGCCGCAAAGCUUGAGAGCAUCUUCGGAUGCAGAGGCGGCAGCCUUCGGUGGCGCGAUAGCGCCAACGUUCUCAACUAUGACACACAAAACGCGUGCUCCGUUGAAUCGAGUUGAUCAUG,≤ -4.2
2,GGAUCUUCUCGAGCUAACAAAAAAGACAAAUCUGCCACGAAGCUUGAGAGCAUCUUCGGAUGCAGAGGCGGCCGCCUUCGGUGGCGCGAUAGCGCGAACGUUCUCAACUAUGACACGCACAACGCGUGCUCCGUUGAAUUGAGUUUAUCAUG,≤ -4.2
3,GGAUCUUCUCGAGCUAACCAAAAAGACAAAUCUGCCACAUAGCUUGAGAGCCUCUUCGGAUGCAGAGGCGGCACCCUUCGGUGGCGCGAUAGUGCCAACGUUCUCAACUAUGACACGCAAAACGCGUGCUCCGUUGAAUAGAGUUUAAUAUG,≤ -4.2
4,GGAUCUUCUCGAGCUAACACAAAAGACAAAUCUGCCACAAAGCUUGAGCGCAUCUUCGGAUGCAGAAGCGGCAGCCUUCGGUGGCGCGAUAGCGCCAACGUUCUCAACUAUGACACGCAAAACGCGUGCUCCGUUGAACGGAGUUUAUCAUG,≤ -4.2
5,GGAUCUUCUCGAGCUAACAAAAAAGACUAAUCUGCCACAAAGCUUGAGAGCAUCUUCGGAUGCCGAGACGGCAGCCUUUGGUGGCGCGAUAGCGCCAACGUUCUCAACUAUGACACGCAAAACGCGUGCUCCGUUGAAUGGAGUUUAUCAUG,≤ -4.2
6,GGAUCUUCUCGAGCUAACAAAAAAGACAUAUGUGCCACAAAGCUUGAGAGCAUCUUCGGAUGCAGAGGCGGCAGUCUUCGGUGGCGCGAUAGUGCCAACGUUCUCAACUAUGACACGCAAAACGCGUGCUCCCUUGAAUGGAGUUUAUCAUG,≤ -4.2
7,GGAUCUUCUCGAGCUAACAAAGAAGACAAAUCUGCCACAAAGCUUGAGAGCAUCUUCGGAUGCAGAGGCGGCAGCCAUCGGUGGCGCGAUAGCGUCAACGUUCUCAACUAUGACGCGCAAAACGCGUGUUCCGUUGAAUGGAGUUUAUCAUG,≤ -4.2
8,GGAUCUUCUCGAGCUAACAAAAAAGACAAAUCUGCCUCAAAGUUUGAGAGCCUCUUCGGAUGCAGAGGCGGCCGCCUUCGGUGCCGCGAUAGCGCCAACGUUCUCAACCAUGACACGCAAAACGCGUGCUCCGUUGAAUAGAGUUUAUCAUG,≤ -4.2
9,GGAUCUUCUCGAGCUAACAAAAAAGACCAAUCUGCCACAAAGCUUGAGAGCAUCUUCGGAUGCAGAGGCGGCAGUCUUCGGUGGCGCGAUGGCGCCAACGUUCUCAACGAUGACACGCAAAACGCGUGCUCCGUUGAAUGGAGUUUAUCUUG,≤ -4.2
10,GGAUCUUCUCGAGCUAACAAAAUAGACAAAUCUGCCACAAAGCUUGAGAGAAUCUUCGGAUGCAGAGUCGGCAGCCUUCAGUGUCGCGAUAGCGCCAACGUUCUCAACUAUGACACGCAAAACGCGUGCUCCGUUGAGUGGAGUUUAACAUG,≤ -4.2
11,GGAUCUUCUCGAGCUAACAAAAAAGGCAAAGCUGCCACAAAGCUUGAGAGGAUCUUCGGAUGCAGAGGCGGCAGCCUUCGGUGGCGCCAUAGCGCCAACGUUCUCAACUAUGACACGCAAAACGCGUGCUCCGUUGAAUGGAGUUUAUCAUG,≤ -4.2
12,GGAUCUUCUCGAGCUAACAAAAAUGACAAAUCUGCCACAAAGCUUGAGAGCAUCUUUGAAUGCAGAGGCGGCAGCCUUCGGUGGCGCGAUAGCGCCAACGUUCUCAACUAUGACACGCAAAACGCGUGCUCCGGUGAAUGGAGUUUAUCAUG,≤ -4.2
13,GGAUCUUCUCGAGCUAACAAAAUAGACAAAUCUGCCACAAAGCUUGAGAGCAUCUUCGGAUGCGGAGGCGGCAGCUUUCGGUGGCGCGAUAGCGCAAACGUUCUCAACUAUGACACGCAAAACGCGUGCUCCGUUGAAUGGAGUUUAUCAUG,≤ -4.2
14,GGAUCUUCUCGAGCUAACAAAAAAGUCAAAUCUGCCACAAAGCUUGAGAGCAUCUUCGGAUGCAGAGGCGGCAGCCUUCGGUGGCGCGAUAGCGCGAACGUUCUCAACUAUGACACGCAGAACGCGUGCUCCGUUGAAUGGAGUUUAUCAUG,≤ -4.2
15,GGAUCUUCUCGAGCUAACAAUAAAGACAAAUCUGCCACAAAGCUUGAGCGCAUCUUCGGAUGCAGAGGCGGCAGCCUUCGGUGGCGCGAUAGCGCCAACGUUCUCAACUAUGACACGCAAAACGCGUGCUCCGUUGAAUGGAGUUUAUCAUG,≤ -4.2
16,GGAUCUUCUCGAGCUAACAAAUAAGACAAAUCUGCCACAAAGCUUGAGAGCAUCUUCGGAUGCAGAGGCGGCAGCCUUCAGUGGCGCGAUAGUGCCAACGUUCUCAACUAUGACACGAAAAACGCGUGCUCCGUUGAAUGGAGUUUAUCAUG,≤ -4.2
17,GGAUCUUCUCGAGCUAACAAUAAAGACAAAUCUGCCACAAAGCUUGAGAGCAUCUUCGGAUGCAGAGGCGGCAGCCUUCGGUGGCGCGAUAGCGCUAACGUUCUCAACUAUGACACGCAAAACGCGUGCUCCCUUGAAUGGAGUUUCUCAUG,-4.05
18,GGAUCUUCUCGAGCUAACUAAAAAGACAAAUCUGCCACAAAGCUUGAGUGCAUGUUCGGAUGCAGAGGCGGCAGCCUUCGGUGGCGCGGUAGUGCCAACGUUCUCAACUAUGACACGCAAAACGCGCGCUCCGUUGAAUGGAGUUUAUCAUG,≤ -4.2
19,GGAUCUUCUCGAGCUAACAAUCAAGACAAAUCUGCCACAAAGCUUGAGAGCAUCUUCGGAUGCAGAGGCGGCAGCCUUCGGGGGCGCGAUAUCGCCACCGUUCUCAACUAUGACAUGCAAAACGCGUGCUCCGUUAAAUGGAGUUUAUCAUG,-4.02

row,Variant,polymerase ribozyme fitness (log ratio)
1,GGAUCUUCUCGAGCUAACAAAAAUGACAAAUCUGCCGCAAAGCUUGAGAGCAUCUUCGGAUGCAGAGGCGGCAGCCUUCGGUGGCGCGAUAGCGCCAACGUUCUCAACUAUGACACGCAAAACGCGUGCUCCGCUGAAUGGAGUUUAUCAUG,-4.14
2,GGAUCUUCUCGAGCUAACAAAAAUGACUUAUCUGCCACAAAGCUUGAGAGCAUUUUCGGAUGCAGAGGAGGCAGCGUUCGGUGGCGCGAUAGCUCCCACGUUCUCAACUAUGACACGCAAAACGCGUGCUCCGUCGAAUGGAGUUUAUCAUG,≤ -4.2
3,GGAUCUUCUCGAGCUAACAACAUUGACAAAUCUGCCACAAAGCUUGAGAGCAUCUUCGGAUGCAGAGGCGGCAGCCUUCGGUGGCGCGUUAGCGCCAACGUUGUCAACUCUGACACGCAAAACGCGUGCUCCGUUGAAUGGAGUUUAUCAUG,≤ -4.2
4,GGAUCUUCUCGAGCUAACAAAAAAGUCAAAUGAGCCACAAAGCUUGAGAGCAUGUUCGGAUGCAGUGGCGGCAGCCUUCGGUGGCGCGAUAGCGCCAACGUUCUCAACUAUGACACGAAAAACGCGUGCUCCGUUGAAUGGAGAUUAUCAUG,≤ -4.2
5,GGAUCUUCUCGAGCUAACAAAAAUGACAAAUGUGCCACAAAGCUUGAGAGCAUCUUCGGAUGCAGAGGCGGCAGCCAUCGGUGGCGCGAUAGCGCCAACGUUCUCAACUAUGACACGCAAGACGCGUGCUCCGUUGAAUGGGGUUUAUCAUG,≤ -4.2
6,GGAUCUUCUCGAGCUAACAAAAAAGACAACUCUGCCACAAAGCUUGAGAGCAUCUUCGGAUGCAGAGGCGGCAGCCUUCGGUGGUGCGAUAGCGUCAACGUACUCAACUAUGACACGCAAAACGCGUGCUCAGUUGAAUGGAGUUAAUCAUG,≤ -4.2
7,GGAUCUUCUCGAGCUAACAAAAGAGACAAAUCUGCCACAAAGCUUGAGAGAAUCUUCGGAUGCAGAGGCGGCAGCGUUCGGUGGCGCGAUUGCGCCAACGUUCUCAACUAUGACACGCAAAACGCGUGCUCCGUUGAAUGGAGUUUAUCAUG,≤ -4.2
8,GGAUCUUCUCGAGCUAACAAUAAAGACAAAUCUGCCACAAAGCUUGAGAGCAUCUUUGGAUGCAGAGACGGCUGCCUUCGGUGGCGCGAUACCGCCAACGUUAUCAACUAUGACACGCAAAACGCGUGCUCCGUUGAAUGGAGUUUAUCAUG,≤ -4.2
9,GGAUCUUCUCGAGCUAACAAAAAAGUCAAAUCCGCCACAAAGCUUGAGAGCAUCUUCGGAUGCAGAGGCGGCAGCCUUCGGUGGCGCGAUAGCGCCAACGUUCUCAACUAUGUAACGCAAAACGCGUGCUCCGUUGAAUGCAGUUUAUCAUG,≤ -4.2
10,GGAUCUUCUCGAGCUAACAAUCAAGACAAAUCUGCCACAAAGCUUGAGAGCAUCUUCGGAUGCAGAGGCGGCAGCCUUCGGGGGCGCGAUAUCGCCACCGUUCUCAACUAUGACAUGCAAAACGCGUGCUCCGUUGAAUGGAGUUUAUCAUG,-1.59
11,GGAUCUUCUCGAGCUAACAAAAAGGACAAAUCUGCCACAAAGCUUGAGAGCAUCUUCGGAUGCAGAGGCGGCAGCCUUCGGUGGCGCGAUAGCGCCAACGUUCUCAACUAUGACACGCAAAACGCGUGCUCCGUUGAAUGGACUUUAUCAUG,≤ -4.2
12,GGAUCUUCUCGAGCUAACAAAAAAGACCAAUCUGCCACAAAGCUUGGGAGCAUCUUUGGAUGCAGAGGCCGCAGCCUUCGGUGGCGCGAUAGCGCUAACGUUCUCAACUAUGACACGCAAAACGCGUGCUCCGGUGAAUGGAGUUUAUCUUG,≤ -4.2
13,GGAUCUUCUCGAGCUAACAAAAAAGACCAAUCCGCCACAAAGCUAGAGAGCAUCUUCGGAUGCAGAGGCGGCCGCCUUCGGUGGCGCGAUACCGCCAACGUUCUCAACUAUGACACGCAAAACGCGUGCUCCGUGGAAUGGAGUUUAUCAUG,≤ -4.2
14,GGAUCUUCUCGAGCUAACAAAAAAGACAUAUCUGCCAGAAAGCUUGAGAGCAUCUUCGGAUGCAGAGGCUGCAGCCUUCGGUGGCGCGAUAGCGCCAACGUUCUCAACUAUGACACUCAUAACGCGUGCUCCGUUGAAUGGAGUUUAUUAUG,≤ -4.2
15,GGAUCUUCUCGAGCUAACAAAAAAGACUAAUCUGCCACAAAGCUUGAGAGCAUCUUCGGAUGCAGAGGCGACAGCCUUCGGUGGCGCCAUAGCGCCAACGUUCUCAACUAUGACACGCAAAACGCGUGCUCCGUUGAAUGGAGUUUAUCAUG,≤ -4.2
16,GGAUCUUCUCGAGCUAACAACAAAGACAAAUCUGCCACAAAGCUUGGGAGUAUCUUCGGAUGCAGAGGCGGCAGCCUUCGGUGGCGCGAUAACGCCAACGUUCUCAACUAUGACACGCAGAACGCGUGCUCCGUUGAAUGGAGUUUAUCAUG,≤ -4.2
17,GGAUCUUCUCGAGCUAACAAAAGAGACAAAUCUGCCACAAAGCUUGAGAGCAUCUUCGGAUGCAGAGGCGGCGGCCUUCGGUGGCGCGAUAGCUCCAACGUUCUCAACUAUGACACUCAAAACGCGUGCUCCGUUGAAUGCCGUUCAUCAUG,≤ -4.2
18,GGAUCUUCUCGAGCUAACAAAAACGACAAAUCUGACACAAAGCUUGAGUGCAUCUUCGGAUGCAGAGGCGGCAGCGUUCGGUGGCGCGAUCGCGCCAACGUUCUCAACUAUGACACGCAAAACGCGUGCUCCGUUGAAUGGAGUUUAUCAUG,≤ -4.2
19,GGAUCUUCUCGAGCUAACAAAACAGACAAAUCUGCCACAAAGCUUGAGAGCAUCUUCGGAUACAGAGGCGGCAGCCUUCGGUGACGCGAUAGCGCCAACGUUCUCAACUAUGACACGCAAAACGCGUGCUCCGUUGAAUGGAGUUUAUCAUG,≤ -4.2

# From the RNAGym collection of RNA variant scans (doi:10.1073/pnas.2313332121)
